# Measured values as given in the supplement of paper PMC8728848.
# The list shows a part of the results.
# B1: OrfX (Escherichia coli), Q9X4B6_ECOLX (protein)
# chain: MIKIARIAVTLGLLSSLGAQAYAAGLVVNDNDLRNDLAWLSDRGVIHLSLSTWPLSQEEIARALKKAKPSYSSEQVVLARINQRLSALKADFRVTGYTSTDQPGTPQGFGQTQPADNSLGLAFNNSGEWWDVHLQGNVEGGERISNGSRFNANGAYGAVKFWNQWLSFGQVPQWWGPGYEGSLIRGDAMRPMTGFLMQRAEQAAPETWWLRWVGPWQYQISASQMNQYTAVPHAKIIGGRFTFTPFQSLELGASRIMQWGGEGRPQSFSSFWDGFTGHDNTGTDNEPGNQLAGFDFKFKLEPTLGWPVSFYGQMVGEDESGYLPSANMFLGGVEGHHGWGKDTVNWYVEAHDTRTNMSRTNYSYTHHIYKDGYYQQGYPLGDAMGGDGQLIAGKVELITEDNQRWSTRLVYAKVNPENQSINKAFPHADTLKGLQLGWSGDVYQSVRLNTSLWYTNANNSDSDDVGASAGIEIPFSL
# Columns and labels:
# Test in all cases: glycan array binding signal (z-score within array); higher = stronger binding
# Settings in all cases: glycan notation: IUPAC condensed, linker removed
# [1] = target: Fuc(a1-2)[GalNAc(a1-3)]Gal(b1-4)GlcNAc(b1-3)Gal(b1-4)GlcNAc
# Summary of the method: (§1)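 The binding signal is a Z-score computed within each array and averaged over linkers. Arrays of the same protein sequence at different concentrations or buffers were also averaged together. Data originate from 3228 arrays in the Consortium for Functional Glycomics database, kept only where the protein sequence was available.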
# [2] = target: Fuc(a1-2)[GalNAc(a1-3)]Gal(b1-4)GlcNAc(b1-3)Gal(b1-4)GlcNAc(b1-3)Gal(b1-4)GlcNAc
# Summary of the method: as §1
# [3] = target: Fuc(a1-2)[GalNAc(a1-3)]Gal(b1-4)GlcNAc(b1-3)GalNAc
# Summary of the method: as §1
# [4] = target: Fuc(a1-2)[GalNAc(a1-3)]Gal(b1-4)[Fuc(a1-3)]GlcNAc
# Summary of the method: as §1
# [5] = target: Fuc(a1-2)[GalNAc(a1-3)]Gal(b1-4)[Fuc(a1-3)]GlcNAc(b1-3)GalNAc
# Summary of the method: as §1
# [6] = target: Fuc(a1-2)[GalNAc(a1-4)]Gal(b1-4)GlcNAc
# Summary of the method: as §1
# [7] = target: Fuc(a1-2)[GalNAc(b1-3)]Gal
# Summary of the method: as §1
# Fuc(a1-3)GlcNAc = target: Fuc(a1-3)GlcNAc
# Summary of the method: as §1
# [8] = target: Fuc(a1-3)[Gal(b1-4)]Glc6S
# Summary of the method: as §1
# [9] = target: Fuc(a1-3)[Gal(b1-4)]GlcNAc
# Summary of the method: as §1
# [10] = target: Fuc(a1-3)[Gal(b1-4)]GlcNAc(b1-2)Man
# Summary of the method: as §1
# [11] = target: Fuc(a1-3)[Gal(b1-4)]GlcNAc(b1-2)Man(a1-3)[Fuc(a1-3)[Gal(b1-4)]GlcNAc(b1-2)Man(a1-6)]Man(b1-4)GlcNAc(b1-4)GlcNAc
# Summary of the method: as §1
# [12] = target: Fuc(a1-3)[Gal(b1-4)]GlcNAc(b1-2)Man(a1-3)[Fuc(a1-3)[Gal(b1-4)]GlcNAc(b1-2)Man(a1-6)]Man(b1-4)GlcNAc(b1-4)[Fuc(a1-6)]GlcNAc
# Summary of the method: as §1
# [13] = target: Fuc(a1-3)[Gal(b1-4)]GlcNAc(b1-3)Gal(b1-3)[Fuc(a1-4)]GlcNAc
# Summary of the method: as §1
# [14] = target: Fuc(a1-3)[Gal(b1-4)]GlcNAc(b1-3)GalNAc
# Summary of the method: as §1
# [15] = target: Fuc(a1-3)[Gal(b1-4)]GlcNAc(b1-4)Gal(b1-4)[Fuc(a1-3)]GlcNAc
# Summary of the method: as §1
# [16] = target: Fuc(a1-3)[Gal(b1-4)]GlcNAc(b1-4)Gal(b1-4)[Fuc(a1-3)]GlcNAc(b1-4)Gal(b1-4)[Fuc(a1-3)]GlcNAc
# Summary of the method: as §1
# [17] = target: Fuc(a1-3)[Gal(b1-4)]GlcNAc(b1-6)GalNAc
# Summary of the method: as §1
# [18] = target: Fuc(a1-3)[Gal(b1-4)]GlcNAc(b1-6)[Gal(b1-3)GlcNAc(b1-3)]Gal(b1-4)Glc
# Summary of the method: as §1
# [19] = target: Fuc(a1-3)[Gal(b1-4)]GlcNAc(b1-6)[Neu5Ac(a2-3)Gal(b1-3)]GalNAc
# Summary of the method: as §1
# [20] = target: Fuc(a1-3)[Gal(b1-4)]GlcNAc6S
# Summary of the method: as §1
# [21] = target: Fuc(a1-3)[Gal3S(b1-4)]GlcNAc
# Summary of the method: as §1
# [22] = target: Fuc(a1-3)[Gal3S(b1-4)]GlcNAc6S
# Summary of the method: as §1
# [23] = target: Fuc(a1-3)[GalNAc(b1-4)]GlcNAc
# Summary of the method: as §1
# [24] = target: Fuc(a1-3)[GalNAc(b1-4)]GlcNAc6S
# Summary of the method: as §1
# [25] = target: Fuc(a1-3)[GalNAc3S(b1-4)]GlcNAc
# Summary of the method: as §1
# Fuc(a1-4)GlcNAc = target: Fuc(a1-4)GlcNAc
# Summary of the method: as §1
# Fuc(b1-3)GlcNAc = target: Fuc(b1-3)GlcNAc
# Summary of the method: as §1
# Gal(a1-2)Gal = target: Gal(a1-2)Gal
# Summary of the method: as §1
# Gal(a1-3)Gal = target: Gal(a1-3)Gal
# Summary of the method: as §1
# Gal(a1-3)Gal(b1-3)GlcNAc = target: Gal(a1-3)Gal(b1-3)GlcNAc
# Summary of the method: as §1
# [26] = target: Gal(a1-3)Gal(b1-3)GlcNAc(b1-2)Man(a1-3)[Gal(a1-3)Gal(b1-3)GlcNAc(b1-2)Man(a1-6)]Man(b1-4)GlcNAc(b1-4)GlcNAc
# Summary of the method: as §1
# [27] = target: Gal(a1-3)Gal(b1-3)GlcNAc(b1-3)GalNAc
# Summary of the method: as §1
# [28] = target: Gal(a1-3)Gal(b1-3)GlcNAc(b1-6)GalNAc
# Summary of the method: as §1
# [29] = target: Gal(a1-3)Gal(b1-3)[Fuc(a1-4)]GlcNAc(b1-2)Man(a1-3)[Gal(a1-3)Gal(b1-3)[Fuc(a1-4)]GlcNAc(b1-2)Man(a1-6)]Man(b1-4)GlcNAc(b1-4)GlcNAc
# Summary of the method: as §1
# Gal(a1-3)Gal(b1-4)Glc = target: Gal(a1-3)Gal(b1-4)Glc
# Summary of the method: as §1
# Gal(a1-3)Gal(b1-4)GlcNAc = target: Gal(a1-3)Gal(b1-4)GlcNAc
# Summary of the method: as §1
# [30] = target: Gal(a1-3)Gal(b1-4)GlcNAc(b1-3)GalNAc
# Summary of the method: as §1
# [31] = target: Gal(a1-3)Gal(b1-4)GlcNAc(b1-6)GalNAc
# Summary of the method: as §1
# [32] = target: Gal(a1-3)Gal(b1-4)[Fuc(a1-3)]GlcNAc
# Summary of the method: as §1
# [33] = target: Gal(a1-3)Gal(b1-4)[Fuc(a1-3)]GlcNAc(b1-2)Man(a1-3)[Gal(a1-3)Gal(b1-4)[Fuc(a1-3)]GlcNAc(b1-2)Man(a1-6)]Man(b1-4)GlcNAc(b1-4)GlcNAc
# Summary of the method: as §1
# Gal(a1-3)GalNAc = target: Gal(a1-3)GalNAc
# Summary of the method: as §1
# [34] = target: Gal(a1-3)[Gal(a1-4)]Gal(b1-4)GlcNAc
# Summary of the method: as §1
# [35] = target: Gal(a1-4)Gal(b1-3)GlcNAc(b1-2)Man(a1-3)[Gal(a1-4)Gal(b1-3)GlcNAc(b1-2)Man(a1-6)]Man(b1-4)GlcNAc(b1-4)GlcNAc
# Summary of the method: as §1
# Gal(a1-4)Gal(b1-4)Glc = target: Gal(a1-4)Gal(b1-4)Glc
# Summary of the method: as §1
binder,measurement,setting,value
B1,glycan array binding signal (z-score),[1],-0.455
same,glycan array binding signal (z-score),[2],0.681
same,glycan array binding signal (z-score),[3],-0.266
same,glycan array binding signal (z-score),[4],0.042
same,glycan array binding signal (z-score),[5],1.18
same,glycan array binding signal (z-score),[6],0.046
same,glycan array binding signal (z-score),[7],-0.235
same,glycan array binding signal (z-score),Fuc(a1-3)GlcNAc,-0.094
same,glycan array binding signal (z-score),[8],0.241
same,glycan array binding signal (z-score),[9],-0.174
same,glycan array binding signal (z-score),[10],-0.185
same,glycan array binding signal (z-score),[11],-0.208
same,glycan array binding signal (z-score),[12],0.133
same,glycan array binding signal (z-score),[13],-0.278
same,glycan array binding signal (z-score),[14],-0.209
same,glycan array binding signal (z-score),[15],-0.319
same,glycan array binding signal (z-score),[16],-0.25
same,glycan array binding signal (z-score),[17],1.29
same,glycan array binding signal (z-score),[18],-0.356
same,glycan array binding signal (z-score),[19],-0.016
same,glycan array binding signal (z-score),[20],0.121
same,glycan array binding signal (z-score),[21],-0.155
same,glycan array binding signal (z-score),[22],2.97
same,glycan array binding signal (z-score),[23],-0.21
same,glycan array binding signal (z-score),[24],-0.277
same,glycan array binding signal (z-score),[25],-0.23
same,glycan array binding signal (z-score),Fuc(a1-4)GlcNAc,-0.15
same,glycan array binding signal (z-score),Fuc(b1-3)GlcNAc,-0.024
same,glycan array binding signal (z-score),Gal(a1-2)Gal,-0.296
same,glycan array binding signal (z-score),Gal(a1-3)Gal,0.29
same,glycan array binding signal (z-score),Gal(a1-3)Gal(b1-3)GlcNAc,-0.213
same,glycan array binding signal (z-score),[26],0.011
same,glycan array binding signal (z-score),[27],-0.08
same,glycan array binding signal (z-score),[28],-0.013
same,glycan array binding signal (z-score),[29],0.793
same,glycan array binding signal (z-score),Gal(a1-3)Gal(b1-4)Glc,-0.261
same,glycan array binding signal (z-score),Gal(a1-3)Gal(b1-4)GlcNAc,-0.274
same,glycan array binding signal (z-score),[30],-0.105
same,glycan array binding signal (z-score),[31],-0.23
same,glycan array binding signal (z-score),[32],-0.288
same,glycan array binding signal (z-score),[33],0.01
same,glycan array binding signal (z-score),Gal(a1-3)GalNAc,-0.336
same,glycan array binding signal (z-score),[34],-0.175
same,glycan array binding signal (z-score),[35],-0.18
same,glycan array binding signal (z-score),Gal(a1-4)Gal(b1-4)Glc,0.325
